# Laboratory results taken from PubChem BioAssay (Tox21).
# This list was built around the results that the source calls inconclusive (neither active nor inactive); the mix of calls is not that of the screen. For part of these data: Potencies of inconclusive entries are left out as doubtful fits. Activity calls are given as the source filed them. Unless noted, calls follow the shape of the full dose curve.
# How the values were obtained:
# [1] = qHTS assay to identify small molecule antagonists of the peroxisome proliferator-activated receptor delta (PPARd) signaling pathway - cell viability counter screen (AID 743213; active = well fitted curve in the direction sought with a large enough effect in the repeat runs; inconclusive = weak or mixed curves; inactive = no such curve, though single readings can be large; an effect the other way counts as inactive or inconclusive; also: nearly all actives have a fitted effect of over 50% in size; also: potency is read from the fitted curve at half-maximal effect; as to viability change, negative = cytotoxic: % is scaled to controls: 0 for no effect and ±100 for the full control effect); conditions: PPARd-bla HEK293H viability, CellTiter-Glo luminescence, 17 h; viability change, negative = cytotoxic: at 62 µM (top of the series) unless noted
# In short: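 Viability counter-screen, qHTS format: PPARd-bla HEK293H, L165041 300 nM final, 17 h compound exposure at 37 C, CellTiter-Glo luminescence after 30 min RT.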
# [2] = qHTS assay to identify small molecule agonists of the farnesoid-X-receptor (FXR) signaling pathway - cell viability counter screen (AID 743218; active = well fitted curve in the direction sought with a large enough effect in the repeat runs; inconclusive = weak or mixed curves; inactive = no such curve, though single readings can be large; an effect the other way counts as inactive or inconclusive; also: nearly all actives have a fitted effect of over 45% in size; also: potency is read from the fitted curve at half-maximal effect); conditions: FXR-bla HEK293T viability, CellTiter-Glo luminescence, 16 h; viability change, negative = cytotoxic: at 62.6 µM (top of the series) unless noted
# In short: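 Quantitative HTS counter screen measuring ATP-based viability via CellTiter-Glo luminescence in HEK 293T cells carrying a UAS-driven beta-lactamase reporter, after 16 h compound exposure at 37 C.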
# [3] = qHTS assay to identify small molecule agonists of the endoplasmic reticulum stress response signaling pathway - cell viability counter screen (AID 1159517); also: nearly all actives have a fitted effect of over 50% in size; also: potency is read from the fitted curve at half-maximal effect
# In short: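 ESRE-bla HeLa cells (1,500/well) were plated overnight at 37 C and exposed to compounds for 5 hr. After the 2 hr beta-lactamase substrate read, CellTiter-Glo went into the same wells, and luminescence was read after 30 min at room temperature.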
# [4] = qHTS assay to identify small molecule antagonists of the retinoid acid receptor (RAR) signaling pathway - cell viability counter screen (AID 1159551; active = well fitted curve in the direction sought with a large enough effect in the repeat runs; inconclusive = weak or mixed curves; inactive = no such curve, though single readings can be large; an effect the other way counts as inactive or inconclusive; also: % is scaled to controls: 0 for no effect and ±100 for the full control effect; nearly all actives have a fitted effect of over 35% in size)
# In short: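 In this counter screen, the RARE-luciferase line C3RL4 was exposed for 6 h at 37 C and 5% CO2 to compounds with retinol at 1 uM final. Cellular ATP, read by luminescence, served as the viability measure.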
# [5] = target: Peroxisome proliferator-activated receptor delta (Homo sapiens) (UniProt Q03181); assay: qHTS assay to identify small molecule agonists of the peroxisome proliferator-activated receptor delta (PPARd) signaling pathway (AID 743212); conditions: HEK293H PPARd-UAS-bla, beta-lactamase FRET ratio, 17 h; activation: at 62.6 µM (top of the series) unless noted;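 also: HEK293H cells with PPARd UAS beta-lactamase reporter GeneBLAzer system; % is scaled to controls: 0 for no effect and ±100 for the full control effect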
# In short: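 Beta-lactamase reporter readout: a ratiometric FRET signal from the LiveBLAzer substrate after 2 h at room temperature. Compound exposure at 37 °C in PPARδ-bla HEK293H cells driven by an upstream activator sequence.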
# [6] = qHTS assay to identify small molecule antagonists of the vitamin D receptor (VDR) signaling pathway - cell viability counter screen (AID 743225; active = well fitted curve in the direction sought with a large enough effect in the repeat runs; inconclusive = weak or mixed curves; inactive = no such curve, though single readings can be large; an effect the other way counts as inactive or inconclusive; also: nearly all actives have a fitted effect of over 50% in size; also: potency is read from the fitted curve at half-maximal effect); conditions: VDR-bla HEK293T viability, CellTiter-Glo luminescence, 16 h; viability change, negative = cytotoxic: at 61 µM (top of the series) unless noted
# In short: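 In this counter screen, VDR-bla HEK 293T cells receive test compound plus 3 nM final calcitriol for 16 h at 37C. Room-temperature steps of 2 h with the beta-lactamase substrate, then 30 min with CellTiter-Glo, precede the luminescence read.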
# [7] = target: Peroxisome proliferator-activated receptor delta (Homo sapiens) (UniProt Q03181); assay: qHTS assay to identify small molecule antagonists of the peroxisome proliferator-activated receptor delta (PPARd) signaling pathway (AID 743215; active = well fitted inhibition curve with a large enough effect in the signal ratio in the repeat runs, not every such curve was filed as active; inconclusive = weak or mixed curves, or effect the other way; inactive = no such curve, though single readings can be large or run the other way; the % refers to the signal ratio;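 also: cells stimulated with agonist L165041 at 300 nM final during compound exposure; % is scaled to controls: 0 for no effect and ±100 for the full control effect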); conditions: HEK293H PPARd-UAS-bla, beta-lactamase FRET ratio, antagonist, 17 h; ratio activity, negative = inhibition: at 62 µM (top of the series) unless noted
# In short: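 Here, a reporter line (HEK293H, beta-lactamase under a UAS) measures PPARd signaling. Compounds are tested against agonist L165041 at 300 nM final concentration over 17 h at 37 C, with fluorescence read after substrate.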
# [8] = qHTS assay to identify small molecule antagonists of the farnesoid-X-receptor (FXR) signaling pathway - cell viability counter screen (AID 743221; active = well fitted cell-killing curve with a large enough effect in the repeat runs, not every such curve was filed as active; inconclusive = weak or mixed curves, or effect the other way; inactive = no such curve, though single readings can be large or run the other way; also: nearly all actives have a fitted effect of over 50% in size; also: potency is read from the fitted curve at half-maximal effect); conditions: FXR-bla HEK293T viability, CellTiter-Glo luminescence, 16 h; activity change, negative = cytotoxicity: at 62.6 µM (top of the series)
# In short: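 Compound effects on cell number were measured as CellTiter-Glo luminescence in HEK 293T cells expressing FXR-UAS-bla, after 16 h at 37 C with 50 uM CDCA (final).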
# [9] = target: Vitamin D3 receptor (Homo sapiens) (UniProt P11473); assay: qHTS assay to identify small molecule agonists of the vitamin D receptor (VDR) signaling pathway (AID 743222); conditions: HEK293T VDR-UAS-bla, beta-lactamase FRET ratio, 16 h; activation: at 63.5 µM (top of the series) unless noted; also: % is scaled to controls: 0 for no effect and ±100 for the full control effect
# In short: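 Tox21 cell reporter format: VDR-bla line, 16 h compound exposure in 5% CO2 at 37C, then fluorescence intensity after 2 h with LiveBLAzer B/G FRET substrate.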
# [10] = target: Vitamin D3 receptor (Homo sapiens) (UniProt P11473); assay: qHTS assay to identify small molecule antagonists of the vitamin D receptor (VDR) signaling pathway (AID 743223; active = well fitted inhibition curve with a large enough effect in the signal ratio in the repeat runs, not every such curve was filed as active; inconclusive = weak or mixed curves, or effect the other way; inactive = no such curve, though single readings can be large or run the other way; the % refers to the signal ratio; also: potency is read from the fitted curve at half-maximal effect); conditions: VDR-UAS-bla HEK293T, beta-lactamase FRET ratio, 16 h; activity change, negative = inhibition: at 61 µM (top of the series) unless noted
# In short: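 Beta-lactamase activity in VDR-bla cells is measured by FRET substrate fluorescence (2 h, room temperature) after cells spend 16 h at 37C with test compound and 3 nM final 1alpha,25-dihydroxyvitamin D3.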
# [11] = qHTS assay to identify small molecule agonists of the RXR signaling pathway - cell viability counter screen (AID 1159529; active = well fitted curve in the direction sought with a large enough effect in the repeat runs; inconclusive = weak or mixed curves; inactive = no such curve, though single readings can be large; an effect the other way counts as inactive or inconclusive)
# In short: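 Viability read-out for the RXR-alpha agonist qHTS: luminescent CellTiter-Glo signal after 30 min at RT. HEK 293T bla reporter cells, 2% charcoal-stripped FBS, 16 hr compound incubation; tetraoctyl ammonium bromide as cytotoxic control.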
# Tags tell the direction and shape of the fitted curve or compound fluorescence and quenching.
# Sequence of UniProt Q03181 (Q03181 whole entry, looked up): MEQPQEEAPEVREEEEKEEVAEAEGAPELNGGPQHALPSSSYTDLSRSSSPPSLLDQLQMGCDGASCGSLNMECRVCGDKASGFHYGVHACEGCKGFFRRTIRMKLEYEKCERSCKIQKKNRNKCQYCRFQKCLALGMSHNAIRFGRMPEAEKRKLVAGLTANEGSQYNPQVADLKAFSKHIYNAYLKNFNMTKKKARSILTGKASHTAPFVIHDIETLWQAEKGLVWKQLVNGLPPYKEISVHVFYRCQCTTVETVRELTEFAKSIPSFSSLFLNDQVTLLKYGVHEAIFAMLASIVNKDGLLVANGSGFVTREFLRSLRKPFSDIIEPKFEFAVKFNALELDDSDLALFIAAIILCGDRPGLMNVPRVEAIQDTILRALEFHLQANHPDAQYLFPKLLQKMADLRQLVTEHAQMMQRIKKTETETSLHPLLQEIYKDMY
# Sequence of UniProt P11473 (P11473 whole entry, looked up): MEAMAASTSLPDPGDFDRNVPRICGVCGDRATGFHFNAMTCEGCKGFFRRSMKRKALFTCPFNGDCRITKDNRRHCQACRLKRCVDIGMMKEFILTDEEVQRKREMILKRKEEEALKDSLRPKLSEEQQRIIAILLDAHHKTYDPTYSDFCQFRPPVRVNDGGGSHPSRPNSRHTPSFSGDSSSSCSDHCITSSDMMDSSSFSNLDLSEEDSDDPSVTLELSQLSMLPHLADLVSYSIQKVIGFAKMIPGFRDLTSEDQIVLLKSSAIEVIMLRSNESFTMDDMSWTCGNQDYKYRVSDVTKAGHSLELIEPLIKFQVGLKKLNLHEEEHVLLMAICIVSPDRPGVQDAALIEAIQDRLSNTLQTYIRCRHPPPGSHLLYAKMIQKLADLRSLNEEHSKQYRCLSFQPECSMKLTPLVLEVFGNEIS
smiles,measurement,setting,value
CCCCCCC(C)(C)S,Potency,[1],inactive
same,Potency,[2],inactive
same,Potency,[3],"inconclusive [rising, partial curve, poor fit]"
same,Potency,[4],inactive
Cc1ccc(C)c(O)c1,Potency,[5],inactive
same,Potency,[3],"inconclusive [cytotoxic, single point]"
CCCCCCCCCCCCCCCCCCO,Potency,[5],inactive
same,Potency,[2],inactive
same,Potency,[6],inactive
same,Potency,[3],inactive
CCC(=O)c1c(O)cc(O)cc1O,activation,[5],inconclusive: -0.242%
same,"ratio activity, negative = inhibition",[7],inconclusive: 2.69%
same,Potency,[8],inactive
same,Potency,[3],inactive
O=C(/C=C/c1ccc(O)c(O)c1)O[C@@H](C(=O)O)[C@@H](OC(=O)/C=C/c1ccc(O)c(O)c1)C(=O)O,activation,[5],inconclusive: 7.98%
same,Potency,[1],"inconclusive [cytotoxic, full curve, poor fit]"
same,Potency,[7],inactive
same,activation,[9],inconclusive: -1.59%
same,Potency,[10],inactive
same,Potency,[6],"inconclusive [cytotoxic, partial curve, poor fit]"
same,Potency,[3],"inconclusive [cytotoxic, full curve, poor fit]"
CC[C@H]1OC(=O)[C@H](C)[C@@H](O[C@H]2C[C@@](C)(OC)[C@@H](O)[C@H](C)O2)[C@H](C)[C@@H](O[C@@H]2O[C@H](C)C[C@H](N(C)C)[C@H]2O)[C@](C)(O)C[C@@H](C)/C(=N\OCOCCOC)[C@H](C)[C@@H](O)[C@]1(C)O,Potency,[5],inactive
same,"ratio activity, negative = inhibition",[7],inconclusive: 20.4%
same,Potency,[8],"inconclusive [rising, partial curve]"
same,Potency,[9],inactive
same,Potency,[6],"inconclusive [cytotoxic, single point]"
same,Potency,[3],"inconclusive [cytotoxic, full curve, poor fit]"
CC(C=O)Cc1ccc(C(C)C)cc1 (centres undefined),Potency,[5],inactive
same,Potency,[2],"inconclusive [rising, full curve, poor fit]"
same,Potency,[3],inactive
ClC/C=C/CCl,Potency,[1],inactive
same,Potency,[3],inactive
CCOC(=O)/C=C\C(=O)OCC,Potency,[10],"inconclusive [inhibitor, full curve, poor fit]"
same,Potency,[3],"inconclusive [cytotoxic, full curve, poor fit]"
same,Potency,[11],"inconclusive [rising, partial curve, poor fit]"
c1ccc(COCc2ccccc2)cc1,Potency,[7],inactive
same,Potency,[9],inactive
same,Potency,[3],"inconclusive [cytotoxic, partial curve, poor fit]"
same,Potency,[4],inactive
